This is one part of the list.
system: T1, C. trachomatis L2/434/Bu expressing GFP (CTL2-GFP); design: species or system HeLa; C. trachomatis total inclusion area by high-content imaging, normalised to DMSO; details: total inclusion area; 28.5 h, 10 µM; inhibitor
T1 construct: L2/434/Bu GFP intracellular growth in HeLa cells
Method in brief: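 Bulk GFP and resorufin signals were read first. Wells were then fixed, stained with Hoechst and imaged to detect GFP inclusions and host nuclei. MICs followed the previously described calculation.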

| SMILES | % of control remaining |
| --- | --- |
| CSc1cccc(C(=O)Nc2sc3c(c2C#N)CCN(C(C)=O)C3)c1 [CBK304390] | 3.276 |
| CC(=O)NC[C@H]1C[C@@H]2CCN1C[C@@H]2c1cc(-c2ccco2)nc(C)n1 [CBK289128] | 83.5414 |
| CCOc1ccc(C(=O)Nc2nonc2CC)cc1 [CBK287287] | 87.0365 |
| O=c1[nH]ccn1CCNc1cc(-c2ccccc2Oc2ccccc2)ncn1 [CBK036966] | 59.0094 |
| Cc1noc(C)c1CCC(=O)NCc1cccc(C#N)c1 [CBK305938] | 68.7725 |
| CN(C)c1cccc(-c2cnc3[nH]c(=O)n(-c4ccc5[nH]ccc5c4)c3n2)c1 [CBK064682] | 103.512 |
| CN1C(=O)COC[C@@H]1[C@H](O)c1ccc(NC(=O)C2CC2)cc1 [CBK289057] | 104.031 |
| COCCNC(=O)c1ccc(-c2ccccc2C)nc1NC(C)=O [CBK106325] | 104.189 |
| CC1(C)CC(=O)c2sc(NC(=O)c3cncnc3)nc2C1 [CBK144107] | 94.8046 |
| O=C(c1ccco1)N1CCN(c2cc(-c3ccc(OCc4ccccc4)cc3)ncn2)CC1 [CBK037844] | 80.9693 |
| COc1ccccc1/C=N/C12CN3CN(CN(C3)C1)C2 [CBK261387] | 97.582 |
| Cc1c(C(=O)Nc2ccc(S(=O)(=O)N(C)Cc3ccccc3)cc2)cccc1[N+](=O)[O-] [CBK267534] | 84.5509 |
| COC(=O)[C@@H]1Cc2ncn(C(C)C)c2CN1S(=O)(=O)c1ccc([N+](=O)[O-])cc1 [CBK288985] | 96.8545 |
| Cc1ccc(S(=O)(=O)NCCNc2ccc([N+](=O)[O-])cc2C(F)(F)F)cc1 [CBK265140] | 70.6574 |
| CC(CNC(=O)C1CCCC1)N1CCc2ccccc2C1 (stereo not drawn) [CBK304555] | 23.6533 |
| O=C(NC1Cc2ccccc2C1)c1cccc(-c2ccc(CC3CCCNC3=O)cc2)c1 (stereo not drawn) [CBK285579] | 93.2757 |
| Cc1[nH]c(=O)[nH]c(=S)c1C(=O)NCc1ccc(Cl)cc1 [CBK115489] | 88.8857 |
| O=C(Nc1ccccc1)Nc1ccc2c(c1)S(=O)(=O)c1cc(NC(=O)Nc3ccccc3)ccc1-2 [CBK262320] | 73.6812 |
| O=C(CSc1n[nH]c(=O)[nH]c1=O)N/N=C/c1ccc(O)cc1 [CBK263488] | 102.314 |
| O=C(c1ccc([N+](=O)[O-])cc1)C12CN3CN(CN(C3)C1)C2 [CBK011238] | 103.396 |
| CSc1cccc(NC(=O)CN(C)S(=O)(=O)c2ccc3ccccc3c2)c1 [CBK266708] | 77.0252 |

From PMC12040169 (PLOS Biology, 2025)
